Assay results from PubChem BioAssay AID1508623 (National Center for Advancing Translational Sciences (NCATS), 2021).
The campaign covered roughly 48,000 compounds. About 450 (0.94%) were called active. About 19% were inconclusive and are not listed. Calls come from the whole dose curve; as a rule, active = well fitted inhibition curve with a large enough effect; inconclusive = small, poorly fitted or top-dose-only effect; inactive = no such curve, though single readings can be large or run the other way. The list shows a part of the results.

Experiment: Primary qHTS for Identification of Small Molecule Inhibitors of Huntingtin Promoter Activity; note: nearly all actives have a fitted effect of over 50% in size
Details: HEK293 HTT promoter firefly luciferase reporter (activity 0% = vehicle and -100% = no light), 24 h; series mostly up to 57.5 µM; activity change, negative = inhibition: at the top concentration
In short: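 HEK293 cells carrying firefly luciferase reporters were seeded at 2,500 per well in Opti-MEM and cultured for 24 h. They were then treated with compounds at up to 57.5 uM final for 24 h at 37 degrees C before Dual-Glo luminescence readout.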

Activity change, negative = inhibition, inactive:
O=C(Nc1nnc(N2CCCCCC2)s1)Nc1ccccc1C(F)(F)F 8.23%, CCC(Sc1nc2ccccc2c2nc(CCc3c(C)n[nH]c3C)nn12)C(=O)Nc1ccc(OC)cc1 (configuration not stated) 4.05%, COc1ccc(Cl)cc1NC(=O)CSc1c2c(nc3ccccc13)CCC2 -26.3%, CCN(c1ccccc1)S(=O)(=O)c1ccc(NC(=O)c2cc(=O)c3cc(C)ccc3o2)cc1 -10.8% [at 11.5 µM], O=C(c1ccc2c(c1)N(Cc1ccc(F)cc1)C(=O)c1ccccc1S2=O)N1CCOCC1 (configuration not stated) -15.6%, Cc1ccccc1-n1c(=O)c2c3c(sc2n2cnnc12)CCCC3 -10.1% [at 11.5 µM], O=S(=O)(Nc1cccc(-c2ccc(N3CCCC3)nn2)c1)c1ccc(F)cc1F 9.56%, COc1ccc(NC(=O)CSc2c3c(nc4ccccc24)CCC3)c(OC)c1 -1.97%, COc1ccc(N2CCN(C(=O)CN(C)S(=O)(=O)c3cccs3)CC2)cc1 -10.5%, COc1ccc(Cn2ccnc2SCC(=O)Nc2cc(C(F)(F)F)ccc2Cl)cc1 -16.1%, CCOC(=O)c1ccccc1NC(=O)c1sc2ccccc2c1Cl -10.8% [at 11.5 µM], COc1ccc(-c2cn3nc(N4CCCC(C(=O)NCc5ccccc5C)C4)sc3n2)cc1 (configuration not stated) -27.3%, CCN(CC)C(=O)Cn1c(=O)cc(C)c2c(C)nn(C)c21 -6.93%, Cc1cc(Cl)ccc1Nc1ncnc2onc(C)c12 -25.9%, Fc1ccccc1OCc1nc(-c2ccc(-n3cccc3)cc2)no1 14.8%, O=C(Nc1ccccc1Cl)C1CCN(c2nc3ccccc3[nH]2)CC1 2%, COc1cccc(NC(=O)CSCn2nnc3c(=O)[nH]c(Cc4ccc(F)cc4)nc32)c1 -0.967%, COC(=O)c1ccc2c(c1)N(CC(=O)Nc1cccc(C(F)(F)F)c1)C(=O)c1ccccc1S2 -21.2%, CC(C)c1ccccc1NC(=O)CN(c1ccccc1)S(=O)(=O)N(C)C -13.8%, O=C(Cn1ccn(-c2cccc(Cl)c2)c(=O)c1=O)c1ccc(F)cc1 -24.9%, O=C(NCCCN1CCN(c2ccc(F)cc2)CC1)c1sc2ncccc2c1-n1cccc1 -32%, CCOc1ccc(CNC(=O)c2[nH]c3ccccc3c2Sc2ccc(C)cc2)cc1 -4.05%, Cc1ccc(NC(=O)CCS(=O)(=O)c2ccc(Br)cc2)c(C)c1 -26.5%, CSc1ccc(C(=O)c2[nH]c(=O)[nH]c2C)cc1 7.72%, COc1ccc(OC)c(S(=O)(=O)N2Cc3ccccc3CC2C(=O)Nc2ccc(Cl)cc2)c1 (configuration not stated) -28.3%, CCOc1ccc(-c2nn(-c3ccccc3)cc2C2NC(=O)NC(C)=C2C(=O)OC(C)C)cc1C (configuration not stated) -20%, Cc1ccc(-n2nc(CO)c(C(=O)NCCCCc3ccccc3)n2)cc1 2.08%, Cc1cc(C)cc(NC(=O)CCS(=O)(=O)c2ccc3nc(C)sc3c2)c1 -11.6%, O=C1C(c2ccc(F)cc2)N(Cc2ccccc2Cl)C(=O)CN1C1CCCCC1 (configuration not stated) -28.1%, COc1ccc(CNC(=O)c2cc3c(=O)n4cccc(C)c4nc3s2)cc1 -0.529%, CCOC(=O)c1[nH]c(C)c(CCC(=O)NC(C)c2ccccc2)c1C (configuration not stated) 2.23%, O=C(Nc1cc2ccc(O)cc2oc1=O)c1ccc(F)cc1 39.3%, Cc1cccc(CNC(=O)Cc2ccc(NC(=O)N3CCCCc4ccccc43)cc2)c1 -25.6%, COc1ccc(CCNC(=O)CCCCn2c(=O)c3ccccc3n(Cc3ccc(Cl)cc3)c2=O)cc1OC -29.7%, COc1cccc(CNC(=O)c2oc3ccc4c(c3c2C)C(=O)CC(C)(C)O4)c1OC 9.94%, Cc1ccc(N(C)C(=O)Cn2cc(S(=O)(=O)N3CCCC3)c(S(=O)(=O)N3CCCC3)c2)cc1 -13.7% [at 11.5 µM], Cn1c(=O)c2c(n3ncnc13)NC(=O)CC2c1cccc(F)c1 (configuration not stated) -14.6%, COc1ccc(NS(=O)(=O)c2ccc3c(c2)CC(C)N3C(C)=O)c(OC)c1 (configuration not stated) -29.5%, Cc1ccc(-n2c(=O)c3c(cnn3C)n(CC(=O)Nc3c(C)cccc3C)c2=O)cc1 -14.6%, C=Cc1ccc(CSc2nnc(C)n3c2cc2occc23)cc1 -14.3%, Cc1ccc2c(CC(=O)N(Cc3ccc(Cl)cc3)Cc3ccco3)coc2c1 -32.7%, Cc1ccccc1Nc1cc(C(=O)NCCc2ccc(Cl)cc2)c2ccccc2n1 -8.62%, COc1cccc(C(=O)Nc2c(C(=O)c3ccc(F)cc3)oc3ccccc23)c1 -16.4%, COc1cc(C2c3c(oc4ccc(C)cc4c3=O)C(=O)N2Cc2ccccc2)ccc1O (configuration not stated) -7.62%, COC(=O)Cc1c(C)c2ccc3c(c2oc1=O)CN(Cc1ccccc1OC)CO3 -6.44%, O=C(Nc1cccc(F)c1)c1cccc2c1C(=O)N(C1CCCCC1)C2 -19%, COc1ccccc1NC(=O)Cn1c(=O)n(-c2cccc(Cl)c2)c(=O)c2c1c1cc(C)ccc1n2C -16.2%, CN1CCc2nc3sc(C(=O)Nc4cccc(C#N)c4)c(N)c3cc2C1 0%, Cc1cc(C)cc(Nc2nnc(-n3nc(C)cc3C)c3ccccc23)c1 -17.3%, CCc1ccccc1NC(=O)CSc1ncc(S(=O)(=O)c2ccccc2)c(=O)[nH]1 -5.27%, Cc1cccc(OCC(=O)Nc2ccc(Cl)c(-c3nc4ccccc4[nH]3)c2)c1 -11.8%, O=C(CC1C(=O)N(c2ccccc2)C(=O)N1Cc1ccc2c(c1)OCO2)Nc1ccccc1 (configuration not stated) -21.5%, O=C1CC(c2nnc(Cc3ccccc3Cl)o2)CN1c1ccccc1 (configuration not stated) -15.4%, Cc1ccc(-c2cc3c(n2-c2ccccc2F)CC(C)(C)CC3=O)cc1 2.38%, CCOC(=O)c1ccc(CN(Cc2ccccc2C)S(=O)(=O)c2ccc(F)c(C(=O)Nc3cccc(OC)c3)c2)cc1 -22.6%, O=C(CN1C(=O)CSc2ccc(S(=O)(=O)N3CCCC3)cc21)NCc1ccc(Cl)cc1 -18.7%, COc1ccc(NC(=O)CN2C(=O)COc3ccc(S(=O)(=O)N4CCCCC4)cc32)cc1Cl -11%, COc1ccc(NC(=O)c2oc3ccccc3c2NC(=O)Cc2cccs2)cc1 -16.8%, Cc1ccc(NC(=O)c2sc3nc(-c4ccc(F)cc4)ccc3c2N)cc1F 0.431%, O=C(Cn1cc(C(=O)C2CC2)c2ccccc21)Nc1ccc(Br)cc1 -9.98%, COc1ccccc1N1CCN(c2ccc(-c3nc(-c4ccccc4)no3)cc2[N+](=O)[O-])CC1 -1.78%, Cc1ccc(C)c(Cn2c(=O)n(CCCCCC(=O)NCc3ccc4c(c3)OCO4)c(=O)c3sccc32)c1 -25.1%, CC(=O)c1ccc(NC(=O)CCCc2nc(-c3cccc(C)c3)no2)cc1 -9.98%, CC(C)Sc1ncc(Cl)c(C(=O)Nc2nnc(C(C)C)s2)n1 -3.92%, CN(C(=O)C(=O)Nc1ccc2nc3n(c(=O)c2c1)CCCCC3)c1cccc(C(F)(F)F)c1 -9.29%, CCc1ccc(CNC(=O)c2cc(-c3ccc(Br)s3)nc3ccccc23)cc1 -2.39%, COc1cccc(-c2ccc3c(N)c(C(=O)NCc4ccc(Cl)cc4)sc3n2)c1 -25.1%, Cc1cccc(N2CCN(C3(c4ccccc4)C(=O)c4ccccc4C3=O)CC2)c1C 5.46%, Cc1ccc(S(=O)(=O)N2CCOCC2)cc1C(=O)Nc1ccccc1C(=O)O -1.2%, O=S(=O)(Nc1ccc2nc(-c3cccc(Cl)c3)oc2c1)c1ccccc1 13.8%, Cc1ccc2onc(CC(=O)N(C)c3ccccc3)c2c1 -8.68%, COc1ccccc1CNC(=O)c1ccc2nc(-c3ccccc3)c(-c3ccccc3)nc2c1 -11.3%, CCOc1ccc(CNC(=O)c2ccc(NC(=O)N3CCCCc4ccccc43)cc2)cc1OC -6.37%, CCn1cc(C(=O)NCc2ccc(C)cc2)c(=O)c2cc(S(=O)(=O)N3CCCCCC3)ccc21 -6.04%, Cc1nn(C)c2c1c(C(F)(F)F)cc(=O)n2Cc1cccc(Br)c1 0%, CC(C)CNc1nc(Oc2ccc(OCC(N)=O)nn2)nc(N2CCOCC2)n1 -6.99%, C/C=C/C=N/NC(=O)c1ccncc1 6.72%, CCOc1ccc(-n2c(-c3ccccc3)c(C)n3c4c(=O)n(C)c(=O)n(C)c4nc23)cc1 13.9%, CCCNC(=O)C1CCN(c2ncnc3c2nc2n3CCCCC2)CC1 -4.47%, CCCC(=O)NCC(c1ccc2c(c1)OCO2)N1CCN(c2ccccc2)CC1 (configuration not stated) -6.19%, CCCCCOc1ccc(/C=C/C(=O)Nc2sc(C(C)=O)c(C)c2C(=O)OCC)cc1OC 5.41%, CCc1ccc(-n2c(=O)c3sc4ccccc4c3n(Cc3cccc(F)c3)c2=O)cc1 -18.6%, Cc1oc(C)c2c(=O)cc(-c3ccc4c(c3)OCO4)cc(OC(=O)c3ccccc3Cl)c12 -16.8%, C=C1CCC2[C@](C)(CO)C(O)CC[C@]2(C)C1CC=C1C(=O)OCC1O (some centres not stated) 9.8% [at 116 µM], CC(=O)NO 5.8%, CCN(CC)C(=O)c1sc(NC(=O)C(C)Sc2nc(-c3ccccc3)cc(C(F)(F)F)n2)c(C(=O)OC)c1C (configuration not stated) -21.2%, COc1ccc(C2=CC(c3ccccc3F)n3ncc(C(=O)Nc4ccc(C)cc4)c3N2)cc1 (configuration not stated) -0.0715%, COC(=O)c1ccccc1NC(=O)CCC(=O)N1CCOc2ccccc21 -22.4%, COc1cc(Nc2ncc(F)c(Nc3ccc4c(n3)NC(=O)C(C)(C)O4)n2)cc(OC)c1OC -6.08%, COc1ccccc1Cn1ccn(Cc2c(F)cccc2Cl)c(=O)c1=O -70.7%, CN(C)c1oc(/C=C/c2ccc(F)cc2)nc1C#N 75.2%, CC(=O)c1ccc(NC(=O)Nc2nnc(N3CCCC(C)C3)s2)cc1 (configuration not stated) -3.08%, CCN(c1ccccc1)c1nnc(NC(=O)Nc2cccc(Cl)c2C)s1 0.186%, Cc1c2cnn(CC(=O)NCc3ccc(F)cc3)c(=O)c2c(C)n1Cc1ccccc1F -3.68%, Cc1nc2c(C(=O)NCCc3ccccc3)cnn2c(C)c1Cc1c(F)cccc1Cl -13.2%, COc1ccc(Cl)cc1Nc1ncnc2c1c(-c1ccccc1)cn2-c1ccccc1 -16.8%, CCOCCCNC(=O)c1cc2c(-c3ccc(OC)c(OC)c3)nn(C)c2s1 -5.63%
